# Out of some 110,000 compounds screened, about 230 (0.21%) showed an effect of 50% or more. The list shows a part of the results.
# Biological target: DPAP1 (Plasmodium falciparum, UniProt Q8IIJ9)
# Assay: primary screen, percent inhibition; read by cleavage of a fluorogenic dipeptide substrate; higher = more effect of the substance
# Set-up: species or system P. falciparum D10 trophozoite lysates; single well
# 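Also: 30 min substrate incubation versus DMSO and 10 µM JCP410 controls.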
# Chain of DPAP1 (Q8IIJ9 whole entry, looked up): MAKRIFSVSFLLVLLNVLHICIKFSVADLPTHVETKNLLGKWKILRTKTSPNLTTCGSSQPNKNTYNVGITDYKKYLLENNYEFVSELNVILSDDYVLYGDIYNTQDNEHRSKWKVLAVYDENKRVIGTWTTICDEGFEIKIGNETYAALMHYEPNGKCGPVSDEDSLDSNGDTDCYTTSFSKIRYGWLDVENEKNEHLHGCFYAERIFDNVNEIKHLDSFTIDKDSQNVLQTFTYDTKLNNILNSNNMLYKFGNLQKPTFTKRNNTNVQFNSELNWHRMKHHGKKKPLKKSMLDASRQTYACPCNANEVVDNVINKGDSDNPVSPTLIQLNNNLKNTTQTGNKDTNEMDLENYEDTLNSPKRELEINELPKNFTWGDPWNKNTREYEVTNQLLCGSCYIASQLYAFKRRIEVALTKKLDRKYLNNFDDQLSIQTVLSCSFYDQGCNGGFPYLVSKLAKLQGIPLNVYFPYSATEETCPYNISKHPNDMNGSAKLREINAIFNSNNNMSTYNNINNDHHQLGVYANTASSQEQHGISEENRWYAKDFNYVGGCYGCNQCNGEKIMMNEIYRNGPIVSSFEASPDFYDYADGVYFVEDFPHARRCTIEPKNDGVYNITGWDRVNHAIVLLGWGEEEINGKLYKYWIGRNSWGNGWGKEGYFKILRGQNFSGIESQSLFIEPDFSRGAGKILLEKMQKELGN
row,SMILES,% Inhibition @ 10 uM
1,O=C1N=C(N2CCCCC2)S/C1=C/c1ccc(Cl)cc1,3.69%
2,CCN1C(=O)/C(=C/C=C/c2ccco2)C(=O)NC1=S,3.76%
3,CO/C(O)=C1\C(C)=NC2=C(C(=O)CC(C)(C)C2)C1c1cccs1 (stereo not drawn),0.345%
4,CNC(=O)C(=O)Nc1cccc2ccccc12,1.57%
5,c1ccc(CN2CCN(Cc3ccccc3)C2c2cccnc2)cc1,-8.18%
6,CC(NC(=O)Cn1ncc2ccsc2c1=O)c1ccccc1 (stereo not drawn),-6.52%
7,CC(C)(O)C(=O)/C=C/c1cccc2ccccc12,4.16%
8,CN1CCCN(Cc2ccc(C(F)(F)F)cc2)CC1,-1.92%
9,COc1ccc(CC(=O)N2CC(=O)N(CCc3ccccc3)C(=O)C2)cc1OC,1.2%
10,O=C(NC1CCCC1)C1CCN(C(=O)c2ccc(-c3ccccc3)cc2)CC1,-6.33%
11,COc1ccc(C)cc1N(CC(=O)NCc1ccco1)S(=O)(=O)c1ccc(C)cc1,1.62%
12,COc1ccc(/C=C(\NC(=O)c2ccccc2)C(=O)N2CCc3ccccc32)cc1OC,-2.18%
13,COc1ccc(NC2(c3nnnn3-c3c(C)cccc3C)CCCC2)cc1,-1.45%
14,Cc1ccsc1CN(C(=O)c1oc2c(C)c(C)ccc2c1C)C1CCS(=O)(=O)C1 (stereo not drawn),0.569%
15,CCC(C)NC(=O)CSc1nc2ccccc2c2nc(CCn3c(C)nc4ccccc43)nn12 (stereo not drawn),5.74%
16,CCN1CCN(C(=O)C2CCCN(S(=O)(=O)N(C)C3CCCCC3)C2)CC1 (stereo not drawn),-1.97%
17,COc1ccc(OC)c(C2C3=C(O)CCCC3=NC(C)=C2C(=O)Nc2cccc(F)c2)c1 (stereo not drawn),-7.3%
18,O=C(NCCN1CCCC1)c1ccc(-c2ccccc2)s1,-5.81%
19,Cc1ccc2c(C)c(C(=O)N(Cc3ccccc3)C3CCS(=O)(=O)C3)oc2c1 (stereo not drawn),2.1%
20,N#Cc1cc(S(=O)(=O)N2CCOCC2)ccc1F,-2.14%
21,CCN1CCC(N[C@H]2CC[C@H](O)CC2)CC1,-5.11%
22,Cc1nc2sccn2c1C(=O)Nc1nc(-c2ccccc2)c(C)s1,-4.48%
23,Nc1nc(NCc2cccc(Br)c2)nn1-c1ccccc1,-5.34%
24,CCC1CCC(NCCc2c[nH]c3ccccc23)CC1 (stereo not drawn),3.48%
25,O=S(=O)(c1ccc(F)cc1)N1CCc2ccccc2C1,-1.22%
26,O=C(CNS(=O)(=O)c1cccs1)NC1CCCc2ccccc21 (stereo not drawn),-2.12%

row,SMILES,% Inhibition @ 10 uM
1,CC(C)N(Cc1nc(-c2ccccc2)no1)C(=O)Cc1ccccc1,3.06%
2,COc1ccc(-c2noc(CN(C(=O)COc3ccc(Br)cc3C)C(C)C)n2)cc1,-6.56%
3,CC(C)c1ccccc1NC(=O)c1ccco1,33.3%
4,CCOCCCNC(=O)c1oc2ccc3c(c2c1C)C(=O)CC1(CCCCC1)O3,0.623%
5,CC(=O)c1c(C)n(Cc2ccco2)c2ccc(O)cc12,-3.71%
6,CSc1ncc(Cl)c(C(=O)N2CCC(Cc3ccccc3)CC2)n1,-4.64%
7,COc1cc(-c2nnc3n(CCCOC(C)C)c(=O)c4ccccc4n23)cc(OC)c1O,1.68%
8,Cc1ccc(C(=O)NCc2ccc(S(N)(=O)=O)cc2)o1,0.13%
9,O=C(Nc1ccccc1[N+](=O)[O-])c1cccc(S(=O)(=O)N2CCOCC2)c1,4.82%
10,O=C(c1ccccc1[N+](=O)[O-])N1CCCCC1,4.12%
11,Cc1ccc(C(=O)n2c(C)c(C)c(C)c(C#N)c2=O)cc1,-0.725%
12,COC(=O)C1=CN(CC2CCCO2)C=C(C(=O)OC)C1c1cccs1 (stereo not drawn),3.43%
13,O=C(COCc1cc(-c2cccs2)on1)NCCc1c[nH]c2ccccc12,-4.96%
14,C=CCC1(C#N)C(SC)=NC2=C(C(=O)CC(C)(C)C2)C1c1ccc(Br)cc1 (stereo not drawn),0.847%
15,COc1cc(C(=O)NCc2cn3ccccc3n2)cc(OC)c1OC,1.68%
16,COCc1cc(C)nc(SCC(=O)Nc2nc(-c3ccc(Br)cc3)cs2)c1C#N,-6.51%
17,O=C(C1CCN(c2nc3ccccc3n3cccc23)CC1)N1CCC(Cc2ccccc2)CC1,-7.32%
18,COc1cc(CNC2CCCCC2C)cc(OC)c1 (stereo not drawn),1.88%
19,COc1ccc2c(C)c(CC(=O)N3CCCCC3)c(=O)oc2c1OC,-0.808%
20,CCN1CCN(c2ccc(NC(=O)C3CCCCC3C(=O)O)cc2)CC1 (stereo not drawn),-1.82%
21,COc1ccc(C(=O)/N=c2\sc(C)c(-c3ccc(C)cc3)n2C)cc1OC,3.58%
22,O=C(c1ccccc1)c1ccc2nc(Cl)c3nnnn3c2c1,3.51%
23,CC(=O)N1CN(CCC(C)C)Cc2c1sc1c2CCCC1,3.24%
24,COc1ccc(N2CCN(Cc3ccsc3)CC2)cc1,-0.969%
25,Cn1c(=O)c2c(Nc3ccc(F)cc3)cc(=O)n(C)c2n(C)c1=O,-0.496%
26,CC1(C)CC(=O)C2=C(C1)N(c1sc3c(c1C#N)CCCC3)C(=O)CC2c1ccccc1 (stereo not drawn),5.49%

row,SMILES,% Inhibition @ 10 uM
1,O=C(O)CCNc1nc(O)c2[nH]cnc2n1,-5.47%
2,CCCCOc1ccc(C2c3c(oc4ccccc4c3=O)C(=O)N2c2ccccn2)cc1 (stereo not drawn),1.62%
3,Nc1nc(-c2ccc(Cl)c(Cl)c2)cs1,3.42%
4,CC(C)C[C@H](NC(=O)N1CCN(c2ccccc2Cl)CC1)C(=O)NCC#N,-3.48%
5,O=c1ncn(-c2ccccc2C(F)(F)F)c2ncccc12,-7.62%
6,COc1ccc(CC(=O)Nc2c(O)oc3ccccc3c2=O)cc1OC,-0.426%
7,Cc1ccnc(NC(=O)Cn2cnc3c(=O)n(C)c(=O)n(C)c32)c1,1.72%
8,CC(NC(=O)Cc1ccc(F)cc1)C(c1cccs1)N1CCN(C)CC1 (stereo not drawn),-1.08%
9,COc1ccc(-n2nc3c(c2NC(=O)c2ccc(OC(C)C)cc2)CS(=O)(=O)C3)cc1,7.66%
10,CCOC(C(=O)c1ccccc1)c1ccccc1 (stereo not drawn),8.74%
11,O=C(NCc1cccnc1)C1c2ccccc2C(=O)N1Cc1ccc2c(c1)OCO2 (stereo not drawn),-1.29%
12,O=C(Nc1ccccc1F)c1ccccc1Cl,-1.48%
13,CCOc1ccccc1/C=c1\sc2nc(=O)c(Cc3ccc(C)cc3)nn2c1=O,-4.14%
14,NC(=O)C1CCCN(C2CCc3ccccc3C2)C1 (stereo not drawn),-1.5%
15,CN1CCC(N(C)Cc2ccc(Cl)c(Cl)c2)CC1,-0.969%
16,CCC(=O)C1=C(Nc2cccc3ccccc23)CCCC1=O,-0.0959%
17,COc1cc2c(cc1OC)C(C(=O)N1CCN(C)CC1)C(c1ccccc1F)N(C)C2=O (stereo not drawn),4.79%
18,CN(C)c1cc(N)c2c(n1)CCC2,-5.16%
19,Cc1ccc(NS(=O)(=O)c2cccc(C(=O)Nc3cccc(C)c3)c2)cc1,-1.77%
20,Cn1nc(C(=O)NC2CCCCC2)c2ccccc2c1=O,-4.78%
21,Cc1oc(-c2ccccc2Cl)nc1CSCC(=O)NCCc1ccc(Cl)cc1,-2.85%
22,O=C(NC1CCCCC1)c1ccccc1NS(=O)(=O)c1ccc(Br)s1,-2.92%
23,CN(Cc1ccccc1)S(=O)(=O)c1nnc(NC(=O)/C=C/c2ccccc2)s1,0.522%
24,Cc1cccc(-n2c(C)nc3cc(C(=O)N4CCC5(CC4)OCCO5)ccc32)c1,2.84%
25,COCCCNc1sc(S(C)(=O)=O)nc1S(=O)(=O)c1ccc(Cl)cc1,-4.04%
26,CC1CN(S(=O)(=O)c2ccc(Cl)cc2)CCN1S(=O)(=O)c1ccc(Cl)cc1 (stereo not drawn),2.26%

row,SMILES,% Inhibition @ 10 uM
1,CCN1CCN(c2oc(-c3ccccc3)nc2C#N)CC1,-4.93%
2,O=C(Nc1nc(COc2ccccc2)cs1)C12CC3CC(CC(C3)C1)C2,-6.59%
3,CCC(=O)c1c(O)c2ccccc2n(C)c1=O,-5.92%
4,CCOc1cc(-c2c(C#N)c(N)nc3c2CCCC3C)ccc1O (stereo not drawn),8.82%
5,COc1ccc(-c2cn3cccnc3n2)cc1F,-1.52%
6,Cc1ccc(N(CC(=O)N2CCN(Cc3ccccc3)CC2)S(=O)(=O)c2ccc(F)cc2)cc1,3.09%
7,CC(C)c1ccc(OCC(O)CN2CCCC2)cc1 (stereo not drawn),-2.81%
8,O=C(NCc1ccccc1Cl)c1cnn2c3c(cnc12)CCCCC3,-3.57%
9,COc1ccc(/C=C/C2=NC(=C\c3ccccc3F)/C(=O)O2)cc1,5.63%
10,O=C(c1cc2nc(-c3ccccc3)cc(C(F)(F)F)n2n1)N1CCN(c2ccc(F)cc2)CC1,4.88%
11,O=C1c2ccccc2C(=O)N1CCCC(=O)n1cccn1,1.76%
12,COc1ccccc1CC(=O)O/N=C(\N)c1ccncc1,-1.33%
13,O=S(=O)(c1cc(Cl)ccc1Cl)N1CCN(c2ccc(F)cc2)CC1,2.99%
14,C=CCNc1cc(-c2ccccc2)nc2nncn12,0.895%
15,COc1ccc(C2C(=O)N(C3CCCCCC3)CC(=O)N2Cc2ccccc2OC)cc1 (stereo not drawn),1.16%
16,CCCOC(=O)c1ccc(NC(=O)c2ccc(OC)cc2)cc1,3.53%
17,CC1(C)Cc2c(ccc3ccccc23)/C(=C\C(=O)N2CCCC2)N1,1.02%
18,COc1ccc(C2C(C#N)=C(N)OC3=C2C(=O)CC(c2ccccc2Cl)C3)cc1 (stereo not drawn),4.7%
19,N#CCNC(=O)[C@H](Cc1ccc2ccccc2c1)NC(=O)c1ccccc1,-5.21%
20,CCCCN1CC2CC=C(Cl)CC2C1 (stereo not drawn),2.56%
21,Cc1ccc(-c2ccc(/C=c3/sc4nc5ccccc5n4c3=O)o2)cc1Cl,4.32%
22,CC(C)COc1cccc(C(=O)Nc2ccc(F)cc2F)c1,-3.77%
23,O=C1CSC(c2ccccc2Br)N1c1ccc(Cl)cn1 (stereo not drawn),0.605%
24,Cc1nn(C(=O)CCCC(=O)NCc2ccccc2Cl)c2ccccc12,-1.11%

# — publication PMC6919601, “Identification of Plasmodium dipeptidyl aminopeptidase allosteric inhibitors by high throughput screening” (PLoS ONE, 2019)
